# Assay results as given in PubChem BioAssay AID1919007 (Molecular Pharmacology Branch, DTP, NCI, 2023).
# “And” between values parts separate entries of the source, which are not always exact repeats. Equal values may be shown once. Further values from the same series stand in other lists.
# System: A498 complex spheroids with HUVEC/MSC, growth
# Test: Anticancer human tumor A498 cell line growth inhibition [AhR];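 further: luminescence signal used as a surrogate for viable cells; seven day exposure starting three days after spheroid seeding; luminescence viability scaled so 100% equals DMSO vehicle wells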
# Details: active compounds read low
# Text: Multicellular complex tumor spheroid response to aryl hydrocarbon receptor antagonists in combination with a variety of drugs and investigational agents in selected tumor cell lines
# The current study was undertaken to assess response to aryl hydrocarbon receptor antagonists in combination with standard-of-care drugs and investigational agents in solid tumor complex spheroid models. Complex spheroids include a stromal component modeled by human endothelial cells (HUVEC) and fibroblasts modeled by human mesenchymal stem cells (MSCs). The concentration ranges selected for each drug and investigational agent were based upon clinically achievable concentrations if the clinical Cmax of the agent was known.
# Compounds. The drugs and investigational agents: BAY 2416964 (NSC825713), GNF351 (NSC835774), CH-223191 (NSC835775), CPI-455 (NSC825282), aza-TdCyd (NSC777586), decitabine (NSC127716), belinostat (NSC758774), entinostat (NSC756642), pevonedistat (NSC761192), tazemetostat (NSC777109), talazoparib (NSC765396), olaparib (NSC753686), selinexor (NSC780203), nedisertib (M3814, NSC802822), bortezomib (NSC756655), venetoclax (NSC766270), doxorubicin (NSC123127), elimusertib (BAY189344, NSC800525), ceralasertib (AZD6738, NSC777638), TAK-243 (NSC785004), alisertib (NSC759677), etoposide (NSC141540), topotecan (NSC609699), eribulin (NSC707389), gemcitabine (NSC613327), carboplatin (NSC241240), cisplatin (NSC119875), and SN-38 (NSC673596) were obtained from the National Cancer Institute (NCI) Developmental Therapeutics Program Chemical Repository (32). The FDA-approved anticancer drug set is available from the Developmental Therapeutics Program at https://dtp.cancer.gov/organization/dscb/obtaining/available plates.htm. […] The stock solutions were prepared in dimethyl sulfoxide (DMSO, Sigma-Aldrich, St. Louis, MO, cat. D2650), except for the platinum compounds which were prepared in saline (Quality Biological, Gaithersburg, MD, cat. 114-055-101), at 800-fold the tested concentration and stored at -70 degrees C prior to their use. All drugs and investigational agents were tested over a range starting from a high concentration at or near the clinical Cmax and decreasing in half-log increments. If the clinical Cmax for an agent had not been determined, the highest concentration tested was 10 microM (Table 1).
# Cell Culture. All cells were maintained in an incubator at 37 degrees C and 5% CO2 with 95% humidity. The PDC lines were cultured according to standard operating procedures established by the NCI PDMR (https://pdmr.cancer.gov). Briefly, all PDCs were thawed and cultured in Matrigel-coated flasks prepared with a working solution of 1X Ham's F-12 nutrient mix, without supplementation (Invitrogen, Waltham, MA, cat. 11765054), 100 U/mL penicillin-streptomycin (Invitrogen, cat. 15140122), and 2.5% Matrigel (Corning Inc., Corning, NY, cat. 354248) for the first three passages. All PDCs were cultured in complete DMEM/F-12 media containing advanced DMEM/F-12 (Invitrogen, cat. 12634028), 4.9% defined fetal bovine serum, heat inactivated (HyClone Laboratories Inc., Logan, UT, cat. SH30070.03HI), 389 ng/mL hydrocortisone (Sigma-Aldrich, cat. H4001), 9.7 ng/mL human EGF recombinant protein (Invitrogen, cat. PHG0313), 23.4 microg/mL adenine (Sigma-Aldrich, cat. A2786), 97.3 U/mL penicillin-streptomycin (Invitrogen, cat. 15140122), 1.9 mM L-glutamine (Invitrogen, cat. 25030081), and 9.7 microM Y-27632 dihydrochloride (Tocris Bioscience, Bristol, United Kingdom, cat. 1254). The PDCs were cultured in complete DMEM/F12 media without 10 microM Y-27632 dihydrochloride for at least two passages prior to the screen. The established cell lines NCI-H1341 and […] were cultured in DMEM/F-12, HEPES (Invitrogen, cat. 11330032), 5% defined fetal bovine serum (HyClone Laboratories Inc., cat. SH30070.03), ITS premix universal culture supplement [insulin (5 microg/mL), transferrin (5 microg/mL), and selenious acid (5 ng/mL)] […]
Compound,"viability, T/C (compound 0.1 µM)","viability, T/C (compound 0.316 µM)","viability, T/C (compound 1 µM)","viability, T/C (compound 3.16 µM)","viability, T/C (compound 10 µM)"
Cc1cncc(-c2nc(NCCc3c[nH]c4ccccc34)c3ncn(C(C)C)c3n2)c1,90.2% [middle of 5 runs],96.3% [middle of 5 runs],92.4% [middle of 4 runs],54.5% and 45.5% and 49.8%,5.41% and 3.13% and 3.53%
CC(CO)NC(=O)c1cc(-c2ccc(Cl)cc2)nn(-c2cnn(C)c2)c1=O (stereo not drawn),92.8% [middle of 5 runs],86.7% and 94% and 87%,92.1% [middle of 4 runs],77.3% [middle of 5 runs],65% [middle of 6 runs]
Cc1ccccc1N=Nc1ccc(NC(=O)c2ccnn2C)c(C)c1,–,89.8% [middle of 5 runs],–,79.7% [middle of 4 runs],85.9% [middle of 5 runs]
